According to PubChem BioAssay AID686978 (National Center for Advancing Translational Sciences (NCATS), 2013):
Hit rate of the full screen: of about 420,000 compounds, about 64,000 (15%) were called active. Inconclusive means that the source gave no clear call. Such entries were picked first, then a sample of the others. Calls follow the shape of the dose curve; as a rule, active = well fitted inhibition curve with a large enough effect; inconclusive = small, poorly fitted or top-dose-only effect; inactive = flat fitted curve, though single readings scatter. No potency is given beside an inconclusive call; the fits are too rough.

test: qHTS for Inhibitors of human tyrosyl-DNA phosphodiesterase 1 (TDP1): qHTS in cells in absence of CPT; conditions: DT40 Tdp1-/- hTDP1 cells, no CPT, ATP luminescence, 48 h; activity change, negative = growth inhibition: at 46.2 µM (top of the series) unless noted; also: nearly all actives have a fitted effect of over 55% in size
How it was run: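 Seeded 400 DT40-hTDP1 cells/well (vehicle DMSO, no 20 nM CPT); pinned compounds; ≥48 hr at 37 °C; CellTiter-Glo luminescence as viability measure.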
% is scaled to controls: 0 for no effect and ±100 for the full control effect; potency is read from the fitted curve at half-maximal effect; tags tell the direction and shape of the fitted curve.

| Compound | Potency | activity change, negative = growth inhibition |
| --- | --- | --- |
| CN1C(=O)NC(c2cccc([N+](=O)[O-])c2)C2=C1CC(C)(C)CC2=O (configuration not stated) | inactive | – |
| COc1ccccc1N(C)C(=O)Cn1c(=O)oc2cc(S(=O)(=O)N3CCCC3)ccc21 | inconclusive [inhibitor, partial curve] | – |
| CCN(CC)c1ccc2cc(C(N)=O)c(=N)oc2c1 | inactive | – |
| O=C(O)CCNC(=O)c1ccc(N=Nc2ccc(O)c(C(=O)O)c2)cc1 | inactive | – |
| O=[N+]([O-])c1ccccc1Oc1ncccc1[N+](=O)[O-] | inactive | – |
| O=C(Cc1cccc2ccccc12)Nc1nc2ccccc2[nH]1 | inactive | – |
| Cc1cc(C)c2c(n1)nn1c(C)c(CCC(=O)NCc3ccco3)c(C)nc21 | inactive | – |
| Cc1ccc(S(=O)(=O)N2CCN(C(=O)CCc3c[nH]c4ccccc34)CC2)c(C)c1 | inconclusive [inhibitor, single point] | – |
| COc1ccc(NC(=O)C2CCN(c3nc(-c4ccc(OC)c(OC)c4)no3)CC2)cc1Cl | inconclusive [inhibitor, single point] | – |
| Cc1noc(C)c1COc1cccc(C(=O)OC(C)C#N)c1 (configuration not stated) | inconclusive [inhibitor, single point] | – |
| CCc1nc2ccc(C(=O)N(C)Cc3ccccc3)cn2c1N(CC)Cc1cccc(Br)c1 | inconclusive [inhibitor, single point] | – |
| COC(=O)c1c(-c2ccc(F)cc2)csc1NC(=O)c1ccco1 | inconclusive [inhibitor, single point] | – |
| CC(NC(=O)COC(=O)c1cc(NS(=O)(=O)c2ccc(Cl)c([N+](=O)[O-])c2)ccc1O)C1CC2CCC1C2 (configuration not stated) | inconclusive [inhibitor, single point] | – |
| Cc1nn(C)c2c1c(C(F)(F)F)cc(=O)n2C(C)C(=O)N1CCN(c2ccccc2)CC1 (configuration not stated) | inconclusive [inhibitor, single point] | – |
| COc1ccc(NS(=O)(=O)c2cc(NC(=O)C3=NN(c4ccccc4)C(=O)CC3)ccc2OC)cc1 | active: 0.184 µM | – |
| COC(=O)c1ccc(COc2ccc(/C=N/N3CCN(C)CC3)cc2)cc1 | – | inconclusive: -34.2% [inhibitor] |
| CCC(C)C(=O)Nc1nc(C)c(-c2csc(Nc3cc(OC)ccc3OC)n2)s1 (configuration not stated) | active: 14.6 µM | – |
| CCOC(=O)c1cccc(NC(=O)CC2Oc3ccccc3NC2=O)c1 (configuration not stated) | – | inconclusive: -36.5% [inhibitor] |
| Cc1cc(S(=O)(=O)c2cc3ccc(O)c(C)c3oc2=O)ccc1F | inconclusive [inhibitor, single point] | – |
| CC(C)CC(=O)N1CCN(Cc2ccccc2Br)CC1 | inactive | – |
| O=c1c2ccccc2[nH]c(=S)n1Cc1cccs1 | inactive | – |
| COc1cc(/C=C2/NC(=O)N(Cc3ccccc3F)C2=O)ccc1O | inconclusive [inhibitor, single point] | – |
| Clc1ccc(CCNC(c2cccc(Cl)c2)c2nnc(-c3ccccc3)o2)cc1 (configuration not stated) | inconclusive [inhibitor, single point] | – |
| Cn1cc(S(=O)(=O)N2CCCCCC2)cc1C(=O)N1CCN(c2ccc(Cl)cc2)CC1 | inconclusive [inhibitor, single point] | – |

| Compound | Potency | activity change, negative = growth inhibition |
| --- | --- | --- |
| COc1ccc(OCC(=O)N2c3ccc(C)cc3C3CN(C)CCC32)cc1 (configuration not stated) | inactive | – |
| COc1ccc(CN2C(=O)C(CC(=O)NCc3cccs3)CC(C(=O)N(C(C)C)C(C)C)=C2C)cc1 (configuration not stated) | inconclusive [inhibitor, single point] | – |
| Cn1c(=O)c2c(ncn2CC(=O)Nc2cc(Cl)cc(Cl)c2)n(C)c1=O | inconclusive [inhibitor, partial curve] | – |
| CCCCNC(=O)CNC(=O)c1nn(-c2ccc(OC)cc2OC)c(=O)c2ccccc12 | inconclusive [inhibitor, single point] | – |
| CCOC(=O)c1c(C)[nH]c(C)c1S(=O)(=O)N1CCN(c2ccccc2OC)CC1 | inactive | – |
| CC(C(O)C12CC3CC(CC(C3)C1)C2)N1CCCCC1 (configuration not stated) | inconclusive [inhibitor, partial curve] | – |
| O=c1[nH]c(NCCO)nnc1Cc1ccc(Cl)cc1 | inactive | – |
| CC1=C(C(=O)Nc2ccccc2)C(c2ccccc2Cl)n2ncc(C(=O)Nc3cccc(C)c3)c2N1 (configuration not stated) | active: 18.4 µM | – |
| CCCc1cc(=O)n2[nH]c(C)c(-c3ccc(Cl)cc3)c2n1 | active: 14.6 µM | – |
| Cc1ccc(NC(=O)Cn2nc(C)c3ccccc3c2=O)c(C)c1 | inactive | – |
| COc1ccc(Cl)cc1NC(=O)CSc1nc2ccccc2nc1N1CCCCC1 | active: 20.6 µM | – |
| COC(=O)C1=C(C)NC2=C(C(=O)CC(C)(C)C2)C1c1cccc(C)n1 (configuration not stated) | inactive | – |
| O=C(Cn1ncc2c([nH]c3ccccc32)c1=O)Nc1ccc(F)cc1F | inconclusive [inhibitor, single point] | – |
| CC(O)(c1ccc(F)c(F)c1)c1nc(-c2ccoc2)cs1 (configuration not stated) | inconclusive [inhibitor, single point] | – |
| CC1CN(C(=O)c2cc(-c3ccncc3)nc3ccccc23)CC(C)O1 (configuration not stated) | inactive | – |
| CC(NC(=O)c1ccc2ccccc2n1)c1ccc(Br)cc1 (configuration not stated) | inconclusive [inhibitor, partial curve] | – |
| Cc1ccc(CC(=O)Nc2ccccc2-c2ccccc2)cc1C | inconclusive [inhibitor, single point] | – |
| Cc1ccc(S(=O)(=O)N[C@@H](Cc2ccccc2)C(=O)CCl)cc1 | active: 5.17 µM | – |
| COc1cc(C(=O)N2CCCCCCC2)ccc1OC1CCN(C(C)=O)CC1 | inconclusive [inhibitor, single point] | – |
| CC(Nc1ncnc2sccc12)c1ccccc1 (configuration not stated) | active: 0.92 µM | – |
| O=C1c2ccccc2C(=O)N1CC(=O)N1c2ccccc2CCc2ccccc21 | inconclusive [inhibitor, partial curve] | – |
| CC(C)c1nc(SCC(=O)Nc2nccs2)c2ccccc2n1 | inactive | – |
| N#C/C=C(/N)N1CCN(c2ccc(Cl)c(Cl)c2)CC1 | active: 16.4 µM | – |
